# Measured values published in the supplement of paper PMC8728848.
# Some of the results follow.
# B1: PRKCE (Homo sapiens), Q02156 (protein)
# chain: MVVFNGLLKIKICEAVSLKPTAWSLRHAVGPRPQTFLLDPYIALNVDDSRIGQTATKQKTNSPAWHDEFVTDVCNGRKIELAVFHDAPIGYDDFVANCTIQFEELLQNGSRHFEDWIDLEPEGRVYVIIDLSGSSGEAPKDNEERVFRERMRPRKRQGAVRRRVHQVNGHKFMATYLRQPTYCSHCRDFIWGVIGKQGYQCQVCTCVVHKRCHELIITKCAGLKKQETPDQVGSQRFSVNMPHKFGIHNYKVPTFCDHCGSLLWGLLRQGLQCKVCKMNVHRRCETNVAPNCGVDARGIAKVLADLGVTPDKITNSGQRRKKLIAGAESPQPASGSSPSEEDRSKSAPTSPCDQEIKELENNIRKALSFDNRGEEHRAASSPDGQLMSPGENGEVRQGQAKRLGLDEFNFIKVLGKGSFGKVMLAELKGKDEVYAVKVLKKDVILQDDDVDCTMTEKRILALARKHPYLTQLYCCFQTKDRLFFVMEYVNGGDLMFQIQRSRKFDEPRSRFYAAEVTSALMFLHQHGVIYRDLKLDNILLDAEGHCKLADFGMCKEGILNGVTTTTFCGTPDYIAPEILQELEYGPSVDWWALGVLMYEMMAGQPPFEADNEDDLFESILHDDVLYPVWLSKEAVSILKAFMTKNPHKRLGCVASQNGEDAIKQHPFFKEIDWVLLEQKKIKPPFKPRIKTKRDVNNFDQDFTREEPVLTLVDEAIVKQINQEEFKGFSYFGEDLMP
# What was measured:
# Assay in all cases: glycan array binding signal (z-score within array); higher = stronger binding
# Settings in all cases: glycan notation: IUPAC condensed, linker removed
# Fuc(a1-2)Gal = molecular target: Fuc(a1-2)Gal
# Summary of the method: (§1)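 The binding signal is a Z-score computed within each array and averaged over linkers. Arrays of the same protein sequence at different concentrations or buffers were also averaged together. Data originate from 3228 arrays in the Consortium for Functional Glycomics database, kept only where the protein sequence was available.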
# Fuc(a1-2)Gal(b1-3)GalNAc = molecular target: Fuc(a1-2)Gal(b1-3)GalNAc
# Summary of the method: as §1
# [1] = molecular target: Fuc(a1-2)Gal(b1-3)GalNAc(a1-3)[Fuc(a1-2)]Gal(b1-4)Glc
# Summary of the method: as §1
# [2] = molecular target: Fuc(a1-2)Gal(b1-3)GalNAc(a1-3)[Fuc(a1-2)]Gal(b1-4)GlcNAc
# Summary of the method: as §1
# [3] = molecular target: Fuc(a1-2)Gal(b1-3)GalNAc(b1-3)Gal
# Summary of the method: as §1
# [4] = molecular target: Fuc(a1-2)Gal(b1-3)GalNAc(b1-3)Gal(a1-4)Gal(b1-4)Glc
# Summary of the method: as §1
# [5] = molecular target: Fuc(a1-2)Gal(b1-3)GalNAc(b1-4)[Neu5Ac(a2-3)]Gal(b1-4)Glc
# Summary of the method: as §1
# Fuc(a1-2)Gal(b1-3)GlcNAc = molecular target: Fuc(a1-2)Gal(b1-3)GlcNAc
# Summary of the method: as §1
# [6] = molecular target: Fuc(a1-2)Gal(b1-3)GlcNAc(b1-2)Man(a1-3)[Fuc(a1-2)Gal(b1-3)GlcNAc(b1-2)Man(a1-6)]Man(b1-4)GlcNAc(b1-4)GlcNAc
# Summary of the method: as §1
# [7] = molecular target: Fuc(a1-2)Gal(b1-3)GlcNAc(b1-2)Man(a1-3)[Fuc(a1-2)Gal(b1-3)GlcNAc(b1-2)Man(a1-6)]Man(b1-4)GlcNAc(b1-4)[Fuc(a1-6)]GlcNAc
# Summary of the method: as §1
# [8] = molecular target: Fuc(a1-2)Gal(b1-3)GlcNAc(b1-3)Gal(b1-4)Glc
# Summary of the method: as §1
# [9] = molecular target: Fuc(a1-2)Gal(b1-3)GlcNAc(b1-3)GalNAc
# Summary of the method: as §1
# [10] = molecular target: Fuc(a1-2)Gal(b1-3)GlcNAc(b1-3)[Fuc(a1-2)Gal(b1-3)GlcNAc(b1-6)]GalNAc
# Summary of the method: as §1
# [11] = molecular target: Fuc(a1-2)Gal(b1-3)GlcNAc(b1-3)[Fuc(a1-3)[Gal(b1-4)]GlcNAc(b1-6)]Gal(b1-4)Glc
# Summary of the method: as §1
# [12] = molecular target: Fuc(a1-2)Gal(b1-3)GlcNAc(b1-3)[Gal(b1-4)GlcNAc(b1-6)]Gal(b1-4)Glc
# Summary of the method: as §1
# [13] = molecular target: Fuc(a1-2)Gal(b1-3)GlcNAc(b1-3)[Neu5Ac(a2-6)Gal(b1-4)GlcNAc(b1-6)]Gal(b1-4)Glc
# Summary of the method: as §1
# [14] = molecular target: Fuc(a1-2)Gal(b1-3)GlcNAc6S
# Summary of the method: as §1
# [15] = molecular target: Fuc(a1-2)Gal(b1-3)[Fuc(a1-4)]GlcNAc
# Summary of the method: as §1
# [16] = molecular target: Fuc(a1-2)Gal(b1-3)[Fuc(a1-4)]GlcNAc(b1-2)Man(a1-3)[Fuc(a1-2)Gal(b1-3)[Fuc(a1-4)]GlcNAc(b1-2)Man(a1-6)]Man(b1-4)GlcNAc(b1-4)GlcNAc
# Summary of the method: as §1
# [17] = molecular target: Fuc(a1-2)Gal(b1-3)[Fuc(a1-4)]GlcNAc(b1-2)Man(a1-6)[Fuc(a1-2)Gal(b1-3)[Fuc(a1-4)]GlcNAc(b1-2)Man(a1-3)]Man(b1-4)GlcNAc(b1-4)[Fuc(a1-6)]GlcNAc
# Summary of the method: as §1
# [18] = molecular target: Fuc(a1-2)Gal(b1-3)[Fuc(a1-4)]GlcNAc(b1-3)[Fuc(a1-3)[Gal(b1-4)]GlcNAc(b1-6)]Gal(b1-4)Glc
# Summary of the method: as §1
# [19] = molecular target: Fuc(a1-2)Gal(b1-3)[Fuc(a1-4)]GlcNAc(b1-3)[Gal(b1-4)GlcNAc(b1-6)]Gal(b1-4)Glc
# Summary of the method: as §1
# Fuc(a1-2)Gal(b1-4)Glc = molecular target: Fuc(a1-2)Gal(b1-4)Glc
# Summary of the method: as §1
# Fuc(a1-2)Gal(b1-4)Glc6S = molecular target: Fuc(a1-2)Gal(b1-4)Glc6S
# Summary of the method: as §1
# Fuc(a1-2)Gal(b1-4)GlcNAc = molecular target: Fuc(a1-2)Gal(b1-4)GlcNAc
# Summary of the method: as §1
# [20] = molecular target: Fuc(a1-2)Gal(b1-4)GlcNAc(b1-2)Man
# Summary of the method: as §1
# [21] = molecular target: Fuc(a1-2)Gal(b1-4)GlcNAc(b1-2)Man(a1-3)[Fuc(a1-2)Gal(b1-4)GlcNAc(b1-2)Man(a1-6)]Man(b1-4)GlcNAc(b1-4)GlcNAc
# Summary of the method: as §1
# [22] = molecular target: Fuc(a1-2)Gal(b1-4)GlcNAc(b1-2)Man(a1-3)[Fuc(a1-2)Gal(b1-4)GlcNAc(b1-2)Man(a1-6)]Man(b1-4)GlcNAc(b1-4)[Fuc(a1-6)]GlcNAc
# Summary of the method: as §1
# [23] = molecular target: Fuc(a1-2)Gal(b1-4)GlcNAc(b1-2)[Fuc(a1-2)Gal(b1-4)GlcNAc(b1-4)]Man(a1-3)[Fuc(a1-2)Gal(b1-4)GlcNAc(b1-2)Man(a1-6)]Man(b1-4)GlcNAc(b1-4)GlcNAc
# Summary of the method: as §1
# [24] = molecular target: Fuc(a1-2)Gal(b1-4)GlcNAc(b1-3)Gal(b1-4)GlcNAc
# Summary of the method: as §1
# [25] = molecular target: Fuc(a1-2)Gal(b1-4)GlcNAc(b1-3)Gal(b1-4)GlcNAc(b1-3)Gal(b1-4)GlcNAc
# Summary of the method: as §1
# [26] = molecular target: Fuc(a1-2)Gal(b1-4)GlcNAc(b1-3)GalNAc
# Summary of the method: as §1
# [27] = molecular target: Fuc(a1-2)Gal(b1-4)GlcNAc(b1-3)[Fuc(a1-2)Gal(b1-4)GlcNAc(b1-6)]GalNAc
# Summary of the method: as §1
# [28] = molecular target: Fuc(a1-2)Gal(b1-4)GlcNAc(b1-6)GalNAc
# Summary of the method: as §1
# [29] = molecular target: Fuc(a1-2)Gal(b1-4)GlcNAc6S
# Summary of the method: as §1
# [30] = molecular target: Fuc(a1-2)Gal(b1-4)[Fuc(a1-3)]GlcNAc
# Summary of the method: as §1
# [31] = molecular target: Fuc(a1-2)Gal(b1-4)[Fuc(a1-3)]GlcNAc(b1-2)Man(a1-3)[Fuc(a1-2)Gal(b1-4)[Fuc(a1-3)]GlcNAc(b1-2)Man(a1-6)]Man(b1-4)GlcNAc(b1-4)GlcNAc
# Summary of the method: as §1
# [32] = molecular target: Fuc(a1-2)Gal(b1-4)[Fuc(a1-3)]GlcNAc(b1-2)Man(a1-6)[Fuc(a1-2)Gal(b1-4)[Fuc(a1-3)]GlcNAc(b1-2)Man(a1-3)]Man(b1-4)GlcNAc(b1-4)[Fuc(a1-6)]GlcNAc
# Summary of the method: as §1
# [33] = molecular target: Fuc(a1-2)Gal(b1-4)[Fuc(a1-3)]GlcNAc(b1-2)[Fuc(a1-2)Gal(b1-4)[Fuc(a1-3)]GlcNAc(b1-4)]Man(a1-3)[Fuc(a1-2)Gal(b1-4)[Fuc(a1-3)]GlcNAc(b1-2)Man(a1-6)]Man(b1-4)GlcNAc(b1-4)GlcNAc
# Summary of the method: as §1
# [34] = molecular target: Fuc(a1-2)Gal(b1-4)[Fuc(a1-3)]GlcNAc(b1-3)Gal(b1-4)[Fuc(a1-3)]GlcNAc
# Summary of the method: as §1
# [35] = molecular target: Fuc(a1-2)Gal(b1-4)[Fuc(a1-3)]GlcNAc(b1-3)Gal(b1-4)[Fuc(a1-3)]GlcNAc(b1-3)Gal(b1-4)[Fuc(a1-3)]GlcNAc
# Summary of the method: as §1
# [36] = molecular target: Fuc(a1-2)Gal(b1-4)[Fuc(a1-3)]GlcNAc(b1-3)GalNAc
# Summary of the method: as §1
# [37] = molecular target: Fuc(a1-2)Gal(b1-4)[Fuc(a1-3)]GlcNAc(b1-3)[Neu5Ac(a2-6)Gal(b1-4)GlcNAc(b1-6)]Gal(b1-4)Glc
# Summary of the method: as §1
# [38] = molecular target: Fuc(a1-2)Gal6S(b1-3)GlcNAc
# Summary of the method: as §1
# [39] = molecular target: Fuc(a1-2)Gal6S(b1-3)GlcNAc6S
# Summary of the method: as §1
binder,measurement,setting,value
B1,glycan array binding signal (z-score),Fuc(a1-2)Gal,-0.205
same,glycan array binding signal (z-score),Fuc(a1-2)Gal(b1-3)GalNAc,-0.353
same,glycan array binding signal (z-score),[1],-0.374
same,glycan array binding signal (z-score),[2],-0.34
same,glycan array binding signal (z-score),[3],-0.099
same,glycan array binding signal (z-score),[4],0.222
same,glycan array binding signal (z-score),[5],-0.414
same,glycan array binding signal (z-score),Fuc(a1-2)Gal(b1-3)GlcNAc,-0.414
same,glycan array binding signal (z-score),[6],-0.28
same,glycan array binding signal (z-score),[7],-0.306
same,glycan array binding signal (z-score),[8],-0.391
same,glycan array binding signal (z-score),[9],0.453
same,glycan array binding signal (z-score),[10],-0.128
same,glycan array binding signal (z-score),[11],0.285
same,glycan array binding signal (z-score),[12],-0.354
same,glycan array binding signal (z-score),[13],-0.252
same,glycan array binding signal (z-score),[14],-0.014
same,glycan array binding signal (z-score),[15],-0.08
same,glycan array binding signal (z-score),[16],3.82
same,glycan array binding signal (z-score),[17],-0.004
same,glycan array binding signal (z-score),[18],-0.205
same,glycan array binding signal (z-score),[19],-0.388
same,glycan array binding signal (z-score),Fuc(a1-2)Gal(b1-4)Glc,-0.235
same,glycan array binding signal (z-score),Fuc(a1-2)Gal(b1-4)Glc6S,0.01
same,glycan array binding signal (z-score),Fuc(a1-2)Gal(b1-4)GlcNAc,-0.402
same,glycan array binding signal (z-score),[20],1.36
same,glycan array binding signal (z-score),[21],-0.127
same,glycan array binding signal (z-score),[22],2.04
same,glycan array binding signal (z-score),[23],0.577
same,glycan array binding signal (z-score),[24],-0.317
same,glycan array binding signal (z-score),[25],-0.376
same,glycan array binding signal (z-score),[26],-0.238
same,glycan array binding signal (z-score),[27],-0.259
same,glycan array binding signal (z-score),[28],0.117
same,glycan array binding signal (z-score),[29],0.411
same,glycan array binding signal (z-score),[30],-0.358
same,glycan array binding signal (z-score),[31],-0.153
same,glycan array binding signal (z-score),[32],0.364
same,glycan array binding signal (z-score),[33],0.125
same,glycan array binding signal (z-score),[34],-0.311
same,glycan array binding signal (z-score),[35],-0.355
same,glycan array binding signal (z-score),[36],-0.231
same,glycan array binding signal (z-score),[37],-0.275
same,glycan array binding signal (z-score),[38],-0.237
same,glycan array binding signal (z-score),[39],0.147
